# Assay results reported in the supplement of paper PMC10126150.
# Sequences with one replicate were seen in a single cluster, so their values are uncertain.
# System: ATP
# Assay: switch fluorescence ratio, 500 uM ATP over buffer (Cy3 cluster intensity, sum of 5 cycles each) (fold (ratio)); higher = stronger signal-on switching upon ATP binding; sequences stand for … in TCGTCGGCAGCGTCAGATGTGTATAAGAGACAGTTTTTTTTTTTTTTTTTTTTTTTTT…TC
# Conditions: aptamer strand: ATP DNA aptamer (quencher-CACCTGGGGGAGTATTGCGGAGGAAGG + anchor), 100 nM annealed; ATP concentration: 500 uM; one replicate
# In short: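 Switching-strand clusters labelled with Cy3 on a modified Illumina MiSeq flow-cell were annealed to 100 nM quencher-labelled ATP aptamer, imaged in selection buffer, and re-imaged after 15 min with 500 uM ATP at 22 °C. This was done over five cycles with NaOH stripping and re-annealing in between. The fluorescence ratio is summed target-cycle over summed buffer-cycle Cy3 intensity per cluster, averaged per switch-domain sequence, excluding clusters outside 100-1000 RFU.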
# 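Further: ATP exposure 15 min at 22 °C before imaging.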
row,Sequence,switch fluorescence ratio
1,CCATGTGGTC,0.935
2,CCATTCGTGG,0.974
3,CCATTCTGCT,1.01
4,CCATTGAGTT,0.992
5,CCATTGGCAG,1.08
6,CCATTGTGGA,1.03
7,CCATTGTGGC,1.01
8,CCATTTACAA,1.02
9,CCATTTCAGC,1.02
10,CCATTTTCGG,1
11,CCCAAATCC,1.09
12,CCCAACATCG,1.04
13,CCCACCCCAC,1.29
14,CCCACGGAGG,1.04
15,CCCACTAATG,0.981
16,CCCACTAATT,1.02
17,CCCACTATTG,1.01
18,CCCAGAGTTG,1.25
19,CCCAGCGTTT,1.09
20,CCCAGGTGGT,1.03
21,CCCATACAGC,1.07
22,CCCATGTGGA,1.03
23,CCCCAAGTTA,1.06
24,CCCCAATATA,1.47
25,CCCCACCAGA,1.07
26,CCCCAGATA,1.1

row,Sequence,switch fluorescence ratio
1,CCCCAGCAGG,2.85
2,CCCCAGCCGC,2.18
3,CCCCAGGTCC,2.74
4,CCCCATTAAC,1.35
5,CCCCCACGA,1.74
6,CCCCCAGCAC,4.93
7,CCCCCAGCCG,1.1
8,CCCCCGTACG,1.59
9,CCCCCTGAGC,1.15
10,CCCCGAGATG,2.59
11,CCCCGATCTT,1.01
12,CCCCGCCCCG,1.89
13,CCCCGGGTTT,1.64
14,CCCCTCTTGA,1.03
15,CCCCTTAGGG,1.93
16,CCCCTTCGTG,1.82
17,CCCCTTGAGC,1.03
18,CCCCTTGTCG,1.01
19,CCCCTTTTTT,1.26
20,CCCGACCCAG,1.11
21,CCCGACTAAG,0.987
22,CCCGAGCTGT,1.6
23,CCCGAGGAG,1.09
24,CCCGGAAAAT,0.993
25,CCCGGACTGC,1.83
26,CCCGGAGGAT,0.996

row,Sequence,switch fluorescence ratio
1,CCCGGAGTAG,2.07
2,CCCGGATTTA,0.979
3,CCCGGCTAAG,1.06
4,CCCGGGGCCT,0.951
5,CCCGGGTAAC,1.1
6,CCCGGTAGAA,1.01
7,CCCGTAGGCC,0.968
8,CCCGTCGGAC,1.61
9,CCCGTCGTCT,0.975
10,CCCGTCTGTC,1.06
11,CCCGTTAGTG,0.985
12,CCCGTTGTGT,1.03
13,CCCGTTTCTG,1.05
14,CCCTACAACT,1.06
15,CCCTAGTCCA,1.03
16,CCCTATTAGT,1.01
17,CCCTATTCAT,1.02
18,CCCTATTTGT,0.974
19,CCCTCAATTG,1.07
20,CCCTCCCCAC,3.41
21,CCCTCCTGCC,3.04
22,CCCTCGAGGG,0.989
23,CCCTCGGAGG,1.02
24,CCCTGAGCTG,1.24
25,CCCTGAGGCA,0.978
26,CCCTGCGTCG,0.994

row,Sequence,switch fluorescence ratio
1,CCCTGCTCGC,1.63
2,CCCTGGAGGG,0.964
3,CCCTGTGTAT,1.09
4,CCCTTAACGG,1.2
5,CCCTTACG,2.64
6,CCCTTAGATT,0.973
7,CCCTTCTA,1.02
8,CCCTTGAGCC,1.1
9,CCCTTGAGCG,1.05
10,CCCTTGTCGT,0.996
11,CCCTTT,1.03
12,CCCTTTGCTA,1.24
13,CCGAAAAATC,2.09
14,CCGAAAGGAG,1.01
15,CCGAAGGTCT,1.08
16,CCGACACCCC,1.41
17,CCGACCTCCA,3.61
18,CCGACGTGTT,3.73
19,CCGACTAGGT,1.03
20,CCGACTGAAT,3.34
21,CCGAGCCTGG,1.22
22,CCGAGTCTCA,1.18
23,CCGATAACAT,1.18
24,CCGATAGTCT,1.05
25,CCGATATTGA,1.09
26,CCGATGGTAT,1.98

row,Sequence,switch fluorescence ratio
1,CCGATTTTGA,0.994
2,CCGCAAGTTT,3.67
3,CCGCATATTT,2.19
4,CCGCCCTCGC,3.46
5,CCGCGAAAAG,1.17
6,CCGCGAAAT,3.35
7,CCGCGACATG,1.3
8,CCGCGAGTAA,2.12
9,CCGCGCTCAG,1.77
10,CCGCGCTGTG,1.14
11,CCGCGGTGGG,1.07
12,CCGCGGTGGT,1.14
13,CCGCTCTGCG,1.02
14,CCGCTGAGGC,1.84
15,CCGCTGATCG,1.9
16,CCGCTGGCGG,1
17,CCGCTTAGGG,1.23
18,CCGGAACTTA,1.1
19,CCGGACCTTA,1.09
20,CCGGACTGTG,0.996
21,CCGGAGAAGT,3.6
22,CCGGAGTGC,1.04
23,CCGGATTAAA,0.949
24,CCGGCGGCCG,1.03
25,CCGGGAAAAT,1.02
26,CCGGGACGCG,1.07

row,Sequence,switch fluorescence ratio
1,CCGGGATTAA,1
2,CCGGGCCTCA,2.18
3,CCGGGCTCTT,1.07
4,CCGGGGGGC,1.12
5,CCGGGGTTAC,3.15
6,CCGGGTACGT,1.06
7,CCGGGTAGTC,1.05
8,CCGGGTGCGG,0.977
9,CCGGGTGTCT,1.09
10,CCGGGTTTA,0.996
11,CCGGTAGGTC,0.987
12,CCGGTGACAT,1.23
13,CCGGTGGTCA,1.14
14,CCGGTGTCGC,0.965
15,CCGTAAGGCC,1.18
16,CCGTACCGGC,1.06
17,CCGTACGATG,1.15
18,CCGTACGC,4.58
19,CCGTACTGCA,2.14
20,CCGTAGGGGG,1.04
21,CCGTAGGGTC,1.22
22,CCGTATGTCA,0.991
23,CCGTATGTGA,1.19
24,CCGTATTAAT,1.17
25,CCGTATTGCT,1.28
26,CCGTATTGGC,1.07

row,Sequence,switch fluorescence ratio
1,CCGTCAACCA,1.26
2,CCGTCAGACT,2.2
3,CCGTCAGCTG,1.16
4,CCGTCCAAGA,3.19
5,CCGTCCCCGG,3.03
6,CCGTCCTAGC,1.24
7,CCGTCGTGT,1.09
8,CCGTCTTCAG,1.09
9,CCGTGACGAT,1.12
10,CCGTGATGCA,1.05
11,CCGTGCACCT,1.13
12,CCGTGCCTAT,1.01
13,CCGTGGCCCC,3.21
14,CCGTGGCGTT,1.06
15,CCGTGTCTTT,0.992
16,CCGTTCGAGG,0.998
17,CCGTTTGGGG,0.962
18,CCTAACGTAG,1.01
19,CCTAAGTGAT,1.4
20,CCTAATAAGG,1.05
21,CCTAATAGGT,0.976
22,CCTAATCACA,1.02
23,CCTAATCCGA,1.09
24,CCTACGATGG,2.39
25,CCTAGACTTG,1.04
26,CCTAGAGGTC,0.992

row,Sequence,switch fluorescence ratio
1,CCTAGGACG,0.992
2,CCTAGGACTA,1.01
3,CCTAGGCTTG,1.01
4,CCTATCACTA,1.05
5,CCTATCGTA,1.1
6,CCTATGAGTA,1.02
7,CCTATTGTCG,0.985
8,CCTATTTCTA,0.997
9,CCTCAAAATG,1.08
10,CCTCAAGGCA,1.84
11,CCTCAGACTT,1.29
12,CCTCAGCAA,1.12
13,CCTCATGTT,1.06
14,CCTCATTAAT,1.24
15,CCTCCATTCA,1.81
16,CCTCCTTTAT,2.46
17,CCTCGAGTGG,1.04
18,CCTCGCCAGA,2.06
19,CCTCGGTCTT,1.57
